Test results taken from the supplement of paper PMC3334620.
Over roughly 33,000 sequences, “E-score (-0.5 to 0.5)” has its median near -0.032; the highest 2% begin near 0.36. The list shows a part of the results.

These sequences were tested against T1, Sko1 (UniProt Q02100) (assay: PBM E-score (8-mer binding enrichment) (E-score (-0.5 to 0.5)); higher = stronger / more preferred TF binding; most listed sequences are background and not binding sites). Conditions: protein concentration: 200 nM; construct: GST-full length.
T1 sequence: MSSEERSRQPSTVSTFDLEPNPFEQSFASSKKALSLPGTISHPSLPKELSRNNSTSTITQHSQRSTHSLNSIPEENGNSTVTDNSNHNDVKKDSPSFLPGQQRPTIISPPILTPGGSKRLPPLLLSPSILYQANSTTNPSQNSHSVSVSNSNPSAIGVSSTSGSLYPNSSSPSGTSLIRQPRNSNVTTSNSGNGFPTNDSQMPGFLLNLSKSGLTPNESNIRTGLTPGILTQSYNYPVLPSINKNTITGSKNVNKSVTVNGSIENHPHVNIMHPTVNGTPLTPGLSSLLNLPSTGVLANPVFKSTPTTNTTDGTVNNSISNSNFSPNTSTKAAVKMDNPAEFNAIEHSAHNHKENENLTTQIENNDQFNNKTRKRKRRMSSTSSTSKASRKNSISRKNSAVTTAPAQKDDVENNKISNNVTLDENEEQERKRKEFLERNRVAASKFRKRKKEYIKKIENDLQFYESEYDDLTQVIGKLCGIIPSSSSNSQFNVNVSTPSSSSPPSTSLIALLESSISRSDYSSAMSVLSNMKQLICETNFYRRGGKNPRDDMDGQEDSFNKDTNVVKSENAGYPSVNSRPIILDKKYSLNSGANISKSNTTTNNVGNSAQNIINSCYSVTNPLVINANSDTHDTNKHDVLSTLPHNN
Summary of the method: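 GST-tagged yeast TFs (full-length or DNA-binding domain) were made by PURExpress in vitro transcription/translation and applied at about 100-200 nM to universal all-10-mer Agilent arrays. The arrays were made double-stranded by primer extension, on fresh or once-stripped slides. Bound protein was detected with fluorescent anti-GST, and scans were normalised with masliner. Each ungapped eight-base word, pooled with its reverse complement, received an E-score (modified Wilcoxon-Mann-Whitney statistic) from the Universal PBM Analysis Suite.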

Row | Sequence | PBM E-score
1 | CGTCGGTC | 0.164
2 | AAGTGTCG | 0.00605
3 | ACTAATCG | -0.0228
4 | CGCGCTAG | -0.081
5 | GAGCACGA | -0.103
6 | GATGATCA | 0.0279
7 | GCCATACA | 0.0456
8 | ACTAGGGG | -0.396
9 | TGCCTACA | 0.0278
10 | GTGGTTAA | 0.205
11 | GCGGGGAC | -0.124
12 | CGTCGTGC | 0.252
13 | AGGTATAA | 0.113
14 | AATGTAAA | 0.212
15 | GTTAGCTA | -0.089
16 | GCAGACAC | -0.0387
17 | ATCAAATG | 0.0548
18 | CCGGAATA | -0.219
19 | GTTAAGCA | 0.0113
20 | AGAATGCA | -0.077
21 | CGGCATGC | -0.133
22 | ACCTATCA | -0.0258

Row | Sequence | PBM E-score
23 | CACGGCGG | -0.156
24 | CTATACGA | 0.178
25 | ACCTAGTA | -0.121
26 | AAGATAAG | 0.094
27 | TTCTGCAA | 0.101
28 | ATATGCTC | -0.0515
29 | ATACGCAT | 0.375
30 | CCTGGTCA | -0.302
31 | AAGGCCCA | -0.201
32 | AGATCGTG | -0.0762
33 | CACGCATG | 0.112
34 | AATCATCT | 0.0757
35 | CATACCGA | 0.0409
36 | CCCCCAGC | -0.26
37 | AAGACTTA | 0.1
38 | AACCGAAA | 0.0754
39 | AGTCTGCC | -0.276
40 | AGACCTGC | -0.219
41 | GGTCCCAA | -0.28
42 | CGACTGGA | -0.12
43 | AAGCAGGA | -0.0742
44 | CCATATGG | -0.164

Row | Sequence | PBM E-score
45 | TCTGCCAA | -0.00328
46 | GGCCTTAA | -0.037
47 | AGACGATA | 0.203
48 | AATGCGGA | -0.0239
49 | TACCGGTA | -0.219
50 | GGGCTGTA | -0.267
51 | ATGTGACC | -0.0234
52 | ATGAGAGA | -0.0294
53 | CTGAGTCA | -0.144
54 | AACCAAGT | 0.0302
55 | ACAGTAAC | 0.0433
56 | GGCACGCA | -0.00979
57 | CCCCTAGC | -0.318
58 | CACTGCTA | -0.0848
59 | ACGCGGGG | -0.0423
60 | AACTAGTG | -0.0641
61 | CGTCCGAG | -0.0998
62 | AGACCTAG | -0.163
63 | CAATCCTA | -0.0963
64 | AGTCGGGG | -0.234
65 | GGCTGACC | -0.264
66 | ATAGGCGA | -0.138

Row | Sequence | PBM E-score
67 | CGTTAGTA | 0.223
68 | GATAACCA | 0.0246
69 | CGGTCTAC | -0.118
70 | AACAATCG | -0.0271
71 | TCGGAGAA | -0.123
72 | CGACGAGC | -0.187
73 | ACTGGGGC | -0.259
74 | CCTTAAGC | -0.259
75 | AGGACATG | -0.0582
76 | TCGAGCAA | -0.0374
77 | CGGACTTA | -0.227
78 | GCAGGCGA | -0.131
79 | GACAGGTC | -0.272
80 | CAGCGTTA | 0.0932
81 | TAAATAAA | 0.288
82 | ACTAAGTA | 0.0919
83 | AGGTATGC | 0.118
84 | AAGGGCGC | -0.15
85 | CCGGCCAC | -0.334
86 | CATCTACC | -0.142
